In all, about 310,000 compounds went through this assay and about 2,200 (0.71%) showed an effect of 50% or more. Effects have a minus sign here. The list shows a part of the results.

Experimental findings from PMC4336329 (PLoS ONE, 2015) are described below.

In the assay the target is human ether-à-go-go-related gene (hERG) potassium channel (human, UniProt Q12809). Kind of assay: primary screen, population patch clamp on CHO cells stably expressing hERG.
human ether-à-go-go-related gene (hERG) potassium channel, sequence (Q12809 whole entry, looked up): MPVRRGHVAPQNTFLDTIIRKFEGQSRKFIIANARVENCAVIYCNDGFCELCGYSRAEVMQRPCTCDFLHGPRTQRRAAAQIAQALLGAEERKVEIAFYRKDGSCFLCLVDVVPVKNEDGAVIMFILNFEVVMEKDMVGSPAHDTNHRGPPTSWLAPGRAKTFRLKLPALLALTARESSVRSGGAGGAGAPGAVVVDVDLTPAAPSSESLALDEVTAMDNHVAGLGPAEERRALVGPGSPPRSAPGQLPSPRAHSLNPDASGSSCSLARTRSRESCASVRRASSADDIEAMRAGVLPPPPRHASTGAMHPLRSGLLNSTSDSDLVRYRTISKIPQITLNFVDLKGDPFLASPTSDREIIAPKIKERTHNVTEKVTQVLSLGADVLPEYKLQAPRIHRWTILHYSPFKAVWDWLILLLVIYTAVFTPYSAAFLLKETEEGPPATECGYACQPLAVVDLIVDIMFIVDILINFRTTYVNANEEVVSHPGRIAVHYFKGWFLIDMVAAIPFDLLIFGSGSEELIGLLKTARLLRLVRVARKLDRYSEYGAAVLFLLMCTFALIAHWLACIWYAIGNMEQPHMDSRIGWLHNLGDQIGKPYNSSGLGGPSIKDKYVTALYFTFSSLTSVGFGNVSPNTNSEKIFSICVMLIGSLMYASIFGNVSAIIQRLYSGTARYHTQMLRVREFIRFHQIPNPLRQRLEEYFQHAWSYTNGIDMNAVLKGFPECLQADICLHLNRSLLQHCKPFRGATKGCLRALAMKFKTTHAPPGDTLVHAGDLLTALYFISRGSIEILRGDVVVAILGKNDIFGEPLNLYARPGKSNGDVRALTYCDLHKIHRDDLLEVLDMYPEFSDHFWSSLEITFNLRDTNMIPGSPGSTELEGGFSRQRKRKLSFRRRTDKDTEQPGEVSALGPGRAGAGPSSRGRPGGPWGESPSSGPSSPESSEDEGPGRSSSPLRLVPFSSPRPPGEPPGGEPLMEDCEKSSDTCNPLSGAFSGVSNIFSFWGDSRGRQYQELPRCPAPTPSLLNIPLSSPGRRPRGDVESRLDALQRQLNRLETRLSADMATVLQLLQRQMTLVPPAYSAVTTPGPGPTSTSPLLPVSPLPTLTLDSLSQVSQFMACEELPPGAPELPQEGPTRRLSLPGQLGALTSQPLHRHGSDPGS
As to `C=CCn1c[n+](CC(=O)c2ccc(Br)s2)c2ccccc21.[Br-]`, the “hERG current change (%, negative = inhibition) at 1uM” value is recorded as 10.7%. As to `CC(=O)c1c(C)[nH]c(C(=O)COC(=O)CCOc2ccc(C)cc2)c1C`, the “hERG current change (%, negative = inhibition) at 1uM” value was determined as 1.4%. Consider `CCc1ccc(NC(=O)c2ccc(C3SCC(=O)N3CCc3ccccc3)cc2)cc1` (stereo not drawn), for which the “hERG current change (%, negative = inhibition) at 1uM” value is 9.81%. As for `O=C(Cc1cccs1)Nc1ccc(NC(=O)c2ccco2)cc1`, the figure is 11.2%. For `O=C(NNC(=O)c1ccccc1OCc1ccccc1Cl)c1csc(N2CCOCC2)n1` the value was 14.1%. For `CCc1ccc(-c2nn[nH]n2)cc1` the value was 9.33%; for `Cc1ccc(NC(=O)CSc2nc3c(c(=O)[nH]2)CN(Cc2ccc(F)cc2)CC3)cc1C`, 1.23%. Regarding `Cc1nc2c(ccc3nc(NC(=O)C(c4ccccc4)c4ccccc4)sc32)s1`, the “hERG current change (%, negative = inhibition) at 1uM” value is on record as 20.3%.

For `Cc1c(CNCC(C)c2ccccc2)c(C(=O)O)c(C)n1Cc1ccccc1` (stereo not drawn), the “hERG current change (%, negative = inhibition) at 1uM” value was -0.168%. As for `CS(=O)(=O)c1ccc(Cl)c(NC(=O)C2CCCCN2S(=O)(=O)c2ccccc2)c1` (stereo not drawn), the figure is -2.17%. As for `C/C=C/Cn1c(SCCCc2ccccc2)nc2c1c(=O)[nH]c(=O)n2C`, the figure is -8.47%.

As for `O=C(Nc1cccc2cccnc12)c1cc(F)c(F)cc1Cl`, the “hERG current change (%, negative = inhibition) at 1uM” value was 18.6%. On to `O=C(CNS(=O)(=O)c1ccc2ccccc2c1)OCc1csc(-c2ccccc2)n1`, for which the “hERG current change (%, negative = inhibition) at 1uM” value was determined as 8.11%. For the compound `Cc1cc2cccc(C)c2nc1SCC(=O)N(C)c1nc(-c2ccccc2)cs1`, the “hERG current change (%, negative = inhibition) at 1uM” value turned out to be 11.3%.

Regarding `CCN(CC)S(=O)(=O)c1ccc(S(=O)(=O)N(CC(=O)Nc2ccccc2)CC2CCCO2)cc1` (stereo not drawn), the “hERG current change (%, negative = inhibition) at 1uM” value came out at 5.1%. As for `CCN(CC)CCn1c(NCc2ccco2)nc2ccccc21.Cl`, the figure is -42.6%; as for `Nc1n[nH]c(N)c1N=Nc1ccc(Cl)cc1`, 2.25%; as for `CC(CS(=O)(=O)c1ccc2c(c1)NC(=O)CS2)C(=O)NCc1ccccc1Cl` (stereo not drawn), 11.5%. For `Cc1cccc(Nc2nc(-c3c(C)nc4ccccn34)cs2)c1` the value was 9.23%. In the case of `COC(=O)C1=C(C)N(CC2CC2)C(=NCCN2CCOCC2)N[C@H]1c1ccccc1`, the “hERG current change (%, negative = inhibition) at 1uM” value is listed as 4.63%. On to `Cc1cc(OCC(=O)N(C)C)c2c(-c3ccccc3)cc(=O)oc2c1`, for which the “hERG current change (%, negative = inhibition) at 1uM” value is given as -7.58%. For the compound `COc1ccc2[nH]c3c(=O)n(CCCN4CCOCC4)cnc3c2c1`, the “hERG current change (%, negative = inhibition) at 1uM” value was 10.2%. For `CCCCc1nc(N2CCOCC2)c(C#N)c2c1COC(C)(C)C2` the value was 7.91%; for `COc1ccc(NC(=O)CSc2nc(SC)ns2)c(OC)c1`, 23.1%; for `CC(=O)c1cc(F)ccc1OCC(=O)N1CCN(c2ccc(F)cc2)CC1`, -7.16%. As for `CC(=O)Nc1ccc(S(=O)(=O)N2CCC(c3nnc(-c4ccc(C)cc4)o3)CC2)cc1`, the figure is -2.65%. On to `Cc1cc(C)n2nc(SCc3nnc(-c4ccccc4Br)o3)nc2n1`, for which the “hERG current change (%, negative = inhibition) at 1uM” value is reported as 6.2%.

For `COc1ccc(NC(=O)c2sc3nc(C)nc(N4CCN(c5ccccn5)CC4)c3c2C)c(OC)c1`, the “hERG current change (%, negative = inhibition) at 1uM” value is 13.8%.

With `O=C(CCCc1c[nH]c2ccccc12)N1CCCCCC1`, the “hERG current change (%, negative = inhibition) at 1uM” value is on record as 1.37%. Turning to `COc1ccc(OC)c(S(=O)(=O)Nc2ccccc2F)c1`, the “hERG current change (%, negative = inhibition) at 1uM” value turned out to be 0.0758%.

`CC1=NN(C(N)=S)C(=O)C1N=Nc1ccc(S(N)(=O)=O)cc1` (stereo not drawn): the “hERG current change (%, negative = inhibition) at 1uM” value stood at 14.9%. As for `Cc1cc(C)cc(NCc2cc(=O)oc3cc(-c4ccccc4)c(O)cc23)c1`, the figure is 9.07%; as for `COc1cc(CNc2ccc(N3CCOCC3)cc2)cc(Br)c1OC`, -4.22%.

Regarding `O=c1c2ccccc2ncn1Cc1nc2ccccc2s1`, the “hERG current change (%, negative = inhibition) at 1uM” value turned out to be 9.43%.

Turning to `CCN(CC)S(=O)(=O)c1ccc(Cl)c(NC(=O)COC(=O)c2c(C)noc2C)c1`, the “hERG current change (%, negative = inhibition) at 1uM” value came out at 13.1%.

For `O=C(/C=C/c1ccccc1)Nn1c(-c2cccs2)nc2ccccc2c1=O`, the “hERG current change (%, negative = inhibition) at 1uM” value worked out at 0.79%.

In the case of `CCN(CC)CCCNC(=O)c1cc(-c2ccc(Cl)cc2)on1`, the “hERG current change (%, negative = inhibition) at 1uM” value was -21.1%. As for `O=C(Nc1ccc(Nc2ccccc2)cc1)N1CCOCC1`, the figure is 7.54%.

As for `CN(Cc1cn[nH]c1-c1cc2ccccc2o1)CC1CCOCC1`, the “hERG current change (%, negative = inhibition) at 1uM” value amounted to 9.75%. For `CN(C)S(=O)(=O)c1ccc(N2CCCC2)c(C(=O)NCc2ccccc2)c1` the value was 8.6%; for `O=C(C1CCCN(Cc2ccc(Cl)cc2)C1)N1CCCCC1.O=C(O)C(=O)O` (stereo not drawn), -5.93%; for `c1ccc2[nH]c(CN3CCCCC3)nc2c1`, 2.98%.

Turning to `COc1ccc(C2=NS(=O)(=O)N(C)C(C(=O)N3CCc4ccccc4C3)=C2)cc1OC`, the “hERG current change (%, negative = inhibition) at 1uM” value was found to be 5.23%. `O=C(Oc1ccc2ccc(O)cc2c1)c1ccccc1Cl`: the “hERG current change (%, negative = inhibition) at 1uM” value is recorded as 16.6%.

With `COC(=O)c1coc(-c2ccc(C)cc2)c1C(=O)OC`, the “hERG current change (%, negative = inhibition) at 1uM” value was 7.33%.

As for `Cc1[nH]c(C)c(S(=O)(=O)NCC(C)c2ccccc2)c1C(=O)N1CCCCC1` (stereo not drawn), the “hERG current change (%, negative = inhibition) at 1uM” value is -0.169%.

Take `COc1ccc(NC(C)=O)cc1NC(C)C(=O)Nc1ccc(F)cc1` (stereo not drawn): the “hERG current change (%, negative = inhibition) at 1uM” value was 12.5%. For `COc1ccc(OC)c(S(=O)(=O)N2CCN(c3ccccn3)CC2)c1`, the “hERG current change (%, negative = inhibition) at 1uM” value is given as 7.33%. As for `Cl.O=C(c1cc(F)c(F)c(F)c1F)N1CCN(Cc2ccc3c(c2)OCO3)CC1`, the figure is 9.54%; as for `COc1cc(CNCCO)cc(Cl)c1OCc1ccccc1Cl.Cl`, 6.13%. For `CCC(C)(C(=O)NC1CCCC1)N(C(=O)c1ccccn1)c1ccccc1` (stereo not drawn) the value was -3.01%; for `COc1ccc(-c2noc(-c3ccc(C)cc3)n2)cc1`, 21.6%. Take `CCCCN(CC)CCCNC(=O)c1cc2c(=O)n(CC)c3ccccc3c2s1`: the “hERG current change (%, negative = inhibition) at 1uM” value is on record as -2.19%. As for `CC(CCN1CCN(CCO)CC1)c1ccccc1` (stereo not drawn), the figure is 9.6%; as for `CSc1nsc(SC)c1C(=O)NCCNS(=O)(=O)c1ccc(C)cc1`, 3.27%. `O=C(O)CCC(=O)N1N=C(c2c(-c3ccccc3)c3cc(Cl)ccc3[nH]c2=O)CC1c1ccccc1` (stereo not drawn): the “hERG current change (%, negative = inhibition) at 1uM” value is listed as 6.97%. For `CCc1ccccc1NC(=O)C1CCN(C(=O)N2CCOc3ccccc32)CC1` the value was 8.6%; for `Cc1ncc2c(c1OC(=O)c1ccc([N+](=O)[O-])cc1)COC(C)(C)OC2`, -42%; for `COCCCNC(=S)NCCNc1nc2cc(C)cc(C)c2cc1C#N`, 7.95%. With `Cc1nc(C(=O)Nc2ccccc2Cl)cc2c1[nH]c1ccccc12`, the “hERG current change (%, negative = inhibition) at 1uM” value is on record as 10.3%. Turning to `CCCC(CCC(=O)Nc1cc([N+](=O)[O-])ccc1O)C(=O)O` (stereo not drawn), the “hERG current change (%, negative = inhibition) at 1uM” value is on record as 11.2%.

On to `O=C(CN(Cc1ccccc1)S(=O)(=O)c1ccc(Br)cc1)N/N=C/c1ccccc1C(=O)O`, for which the “hERG current change (%, negative = inhibition) at 1uM” value came out at 10.5%. As for `COc1ccccc1NC(=O)c1sc2ncn(Cc3cccc(C)c3)c(=O)c2c1C`, the figure is -0.2%; as for `Cc1ccc(S(=O)(=O)N2CCN(Cc3nc4sc(C)c(C)c4c(=O)[nH]3)CC2)cc1`, 19.1%. As to `Nc1c(C(=O)N2CCCC2)sc2nc3c(cc12)CCCCCC3`, the “hERG current change (%, negative = inhibition) at 1uM” value amounted to 5.16%. On to `CC(C)CCNC(=O)c1onc(CSc2ccccn2)c1C(=O)NCCC(C)C`, for which the “hERG current change (%, negative = inhibition) at 1uM” value is listed as 11.1%. As for `CSCC[C@H](NC(=O)c1cccs1)c1nnc2ccccn12`, the “hERG current change (%, negative = inhibition) at 1uM” value is listed as 5.64%. For `O=C(CSc1nc2ccccc2c(=O)n1-c1ccc(Cl)cc1)c1ccco1` the value was 7.3%. For `Cc1onc(-c2c(Cl)cccc2Cl)c1NC(=O)NC1CCSC1` (stereo not drawn) the value was 18.5%; for `O=C(NC1CCCCC1)C(c1ccccn1)N(C(=O)c1csnn1)C1CC1` (stereo not drawn), 12.3%.

`CCOc1cc(C(=S)N2CCOCC2)ccc1OS(=O)(=O)c1ccc(C)cc1`: the “hERG current change (%, negative = inhibition) at 1uM” value turned out to be 15.3%. As for `CC(=O)c1ccc(Nc2cc(C)nc3c(C)cccc23)cc1`, the figure is 0.497%; as for `CCOC(=O)c1c(C)n(OCc2ccccc2)c2ccc3nonc3c12`, 9.48%. As for `Cc1ccc(Nc2ccc([N+](=O)[O-])cn2)cc1Cl`, the figure is 9.08%; as for `CCOC(=O)c1sc(NC(=O)c2ccc(S(=O)(=O)N3CCOCC3)cc2)cc1C`, 5.83%. Turning to `COc1cccc(OC)c1C(=O)NC(=S)Nc1cccc(NC(=O)c2ccco2)c1`, the “hERG current change (%, negative = inhibition) at 1uM” value is listed as 16.4%. As for `CCC12C=CCN3CCC4(c5cc(Br)c(OC)cc5N(C)C4C(O)(C(=O)OC)C1OC(C)=O)C32` (stereo not drawn), the figure is 8.22%. As for `COc1cc(/C=N/N(CCO)C2=NS(=O)(=O)c3ccccc32)cc(OC)c1OC`, the “hERG current change (%, negative = inhibition) at 1uM” value is reported as 8.78%.

Regarding `O=C(c1ccco1)N1CCN(S(=O)(=O)c2ccc3c(c2)CCN3C(=O)C2CCC2)CC1`, the “hERG current change (%, negative = inhibition) at 1uM” value came out at 11.7%. With `CCOc1ccc(CCNC(=O)CN2C(=O)NC(CCSC)C2=O)cc1OCC` (stereo not drawn), the “hERG current change (%, negative = inhibition) at 1uM” value worked out at 10.6%. Regarding `O=S(=O)(NC1CCCCC1)c1ccc(N2CCOCC2)nc1`, the “hERG current change (%, negative = inhibition) at 1uM” value came out at 9.26%. As for `Cc1ccc(C(=O)c2sc3nc4c(cc3c2N)CCC4)cc1`, the figure is -0.546%.

Consider `COc1ccc(CCNC(=O)c2nnn(CC(=O)Nc3cccc(F)c3)c2N)cc1OC`, for which the “hERG current change (%, negative = inhibition) at 1uM” value was determined as 9.38%.

Regarding `COc1cccc(-n2c(-c3ccoc3)nc3ccccc3c2=O)c1`, the “hERG current change (%, negative = inhibition) at 1uM” value is reported as -7.27%.

Take `CC(=O)N/C(=C\c1ccccc1Cl)C(=O)O`: the “hERG current change (%, negative = inhibition) at 1uM” value turned out to be 14%. For `Cc1cccc(C)c1OCC(O)CN1CCN(c2ccccc2)CC1.Cl` (stereo not drawn) the value was -13.5%; for `Cc1nc2cc(NCc3cccs3)ccc2n1C`, -7.17%.
